# Reference: article PMC9911399, “Two distinct binding modes provide the RNA-binding protein RbFox with extraordinary sequence specificity”
# Where a chain is given by its changes, count along the chain named. The list shows a part of the results.
# T1: RBFOX1 RRM RbFoxmut (Fox-RRM*) (Homo sapiens, UniProt Q9NWB1 109-208, R118D;E147R;N151S;E152T)
# T1 sequence: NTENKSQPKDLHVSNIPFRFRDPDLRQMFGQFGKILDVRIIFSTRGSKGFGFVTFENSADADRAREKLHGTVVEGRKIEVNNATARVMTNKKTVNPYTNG
# B1: UCCUUGG (DNA:RNA)
# RNA: GGGAGACCGGAAUUCAGAUUGUCCUCCUUGGUUAAAUCCCGUCGUAGCCACCA
# DNA 1: CAATCTGAATTCCGGTCTCCC
# DNA 2: TGGTGGCTACGACGGGATT
# B2: UACACCG (DNA:RNA)
# RNA: B1 RNA with C26A, U28A, U29C, G30C
# DNA 1: CAATCTGAATTCCGGTCTCCC
# DNA 2: TGGTGGCTACGACGGGATT
# B3: UACACAU (DNA:RNA)
# RNA: B1 RNA with C26A, U28A, U29C, G30A, G31U
# DNA 1: CAATCTGAATTCCGGTCTCCC
# DNA 2: TGGTGGCTACGACGGGATT
# B4: CUCAGAU (DNA:RNA)
# RNA: B1 RNA with U25C, C26U, U28A, U29G, G30A, G31U
# DNA 1: CAATCTGAATTCCGGTCTCCC
# DNA 2: TGGTGGCTACGACGGGATT
# B5: UAGCCCC (DNA:RNA)
# RNA: B1 RNA with C26A, C27G, U28C, U29C, G30C, G31C
# DNA 1: CAATCTGAATTCCGGTCTCCC
# DNA 2: TGGTGGCTACGACGGGATT
# B6: UGUGUAG (DNA:RNA)
# RNA: B1 RNA with C26G, C27U, U28G, G30A
# DNA 1: CAATCTGAATTCCGGTCTCCC
# DNA 2: TGGTGGCTACGACGGGATT
# B7: GAACCGU (DNA:RNA)
# RNA: B1 RNA with U25G, C26A, C27A, U28C, U29C, G31U
# DNA 1: CAATCTGAATTCCGGTCTCCC
# DNA 2: TGGTGGCTACGACGGGATT
# B8: UUAGCGA (DNA:RNA)
# RNA: B1 RNA with C26U, C27A, U28G, U29C, G31A
# DNA 1: CAATCTGAATTCCGGTCTCCC
# DNA 2: TGGTGGCTACGACGGGATT
# B9: GUGCCAG (DNA:RNA)
# RNA: B1 RNA with U25G, C26U, C27G, U28C, U29C, G30A
# DNA 1: CAATCTGAATTCCGGTCTCCC
# DNA 2: TGGTGGCTACGACGGGATT
# Target: T1, RBFOX1 RRM RbFoxmut (Fox-RRM*)
# Test: EMSA; HiTS-Eq, 1 nM pool, 10 min; buffer printed only for the single-RNA assays: 10 mM Tris pH 7.5, 150 mM NaCl, 3.4 mM EDTA, 0.001% NP-40, 30 C
# Settings: tags: His6 N-terminal (pET28a); label: 5' 32P
# Procedure, shortened: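 Purified RbFox RRM, wild type or mutant, was incubated for 10 min in 50 µL with 1 nM of a 5′-radiolabelled RNA pool carrying 7 randomized nucleotides, whose flanks were annealed to DNA oligonucleotides, over a series of increasing protein concentrations. Unbound RNA was resolved on 8% native PAGE, cut out, reverse-transcribed, barcoded by PCR and sequenced on an Illumina HiSeq 2500. Relative association constants were derived from changes in read counts for each RNA species versus the control reaction and normalised to the cognate motif.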
row,Binder,binding signal
1,B1,0.0776 KA relative to UGCAUGU
2,B2,0.0696 KA relative to UGCAUGU
3,B3,0.106 KA relative to UGCAUGU
4,B4,0.118 KA relative to UGCAUGU
5,B5,0.0774 KA relative to UGCAUGU
6,B6,0.196 KA relative to UGCAUGU
7,B7,0.126 KA relative to UGCAUGU
8,B8,0.0644 KA relative to UGCAUGU
9,B9,0.0858 KA relative to UGCAUGU
